Measurements from a compilation of properties of binary mixtures (doi:10.1016/j.molliq.2016.09.077).
Some of these densities may be calculated back from excess volumes.

Assay: xn = mol fraction of the nth substance listed
Settings: 100 kPa

CC[n+]1ccn(C)c1.O=S(=O)([N-]S(=O)(=O)C(F)(F)F)C(F)(F)F + CCOC(C)=O
mass density [kg/m3]
Settings	298.15 K	303.15 K	308.15 K	313.15 K	318.15 K	323.15 K
x2 = 0	1518.1	1512.9	–	1502.8	1497.8	1492.8
x2 = 0.0433	1507.2	1502	1497	1491.9	–	1481.9
x2 = 0.0986	1494.5	1489.4	1484.3	1479.2	1474.1	1469.3
x2 = 0.1858	1470.2	1465	1459.9	1454.7	–	1444.5
x2 = 0.2977	1437.7	–	–	1421.7	1416.5	1411.3
x2 = 0.3962	1406.5	–	1396	–	–	1380.4
x2 = 0.5051	1360.9	1355.8	1350.6	–	–	1335.1
x2 = 0.5961	1309.9	–	1299.1	1293.7	1288.4	1283
x2 = 0.6909	1243	1237.5	1232	1226.4	1220.9	–
x2 = 0.7974	1152.6	–	1141.2	1135.5	1129.9	1124.3
x2 = 0.8979	1041.9	–	1029.8	1023.7	–	1011.6

CCOC(C)=O + CC[n+]1ccn(C)c1.O=S(=O)([N-]S(=O)(=O)C(F)(F)F)C(F)(F)F
x1 = 1
Settings	mass density [kg/m3]
298.15 K	894.5
308.15 K	882.2
313.15 K	876
318.15 K	869.7
323.15 K	863.4

CO + CC[n+]1ccn(C)c1.O=S(=O)([N-]S(=O)(=O)C(F)(F)F)C(F)(F)F
x1 = 1
Settings	mass density [kg/m3]
303.15 K	782.2
313.15 K	772.6
323.15 K	763

CC[n+]1ccn(C)c1.O=S(=O)([N-]S(=O)(=O)C(F)(F)F)C(F)(F)F + CO
mass density [kg/m3]
Settings	x2 = 0	x2 = 0.0938	x2 = 0.1965	x2 = 0.2889	x2 = 0.4005	x2 = 0.5088	x2 = 0.5988	x2 = 0.6909	x2 = 0.7961	x2 = 0.8978
298.15 K	1518.1	1506.6	1491.5	1475.2	1450.3	1418.3	–	1332.1	1245.2	1098
303.15 K	1512.9	1501.5	1486.5	1470.2	1445.3	1413.3	1377.7	1327.4	1240.8	1093.4
308.15 K	1507.8	1496.5	1481.7	1465.3	–	1408.5	1372.9	1322.7	1236.4	–
313.15 K	1502.8	1491.5	1476.8	1460.4	–	–	1368.1	–	1230.6	1083.9
318.15 K	1497.8	1486.6	–	1455.6	1430.8	1398.8	1363.4	1313.9	1227.5	1079.1
323.15 K	1492.8	1481.7	1467.2	1450.8	1426	1394.1	1358.8	1309.3	–	1074.5
